Measurements reported in paper PMC7307925, “Human Serum Albumin Binding in a Vial: A Novel UV-pH Titration Method To Assist Drug Design” (Journal of Medicinal Chemistry, 2020).
Values joined by “and” are separate entries in the source; they are usually repeats but may differ in a detail not shown here. Equal values may be shown once. Read-outs that look alike come from different tables or passages of the source.

Assays:
[1] = target: human serum albumin (HSA) (Homo sapiens, UniProt P02768); test: HSA binding by biomimetic chromatography on immobilized HSA column (Chiralpak-HSA)
[2] = system: human serum albumin (HSA); settings: 49 (SI ref 1,2); cited from earlier work

human serum albumin (HSA), sequence (P02768 25-609): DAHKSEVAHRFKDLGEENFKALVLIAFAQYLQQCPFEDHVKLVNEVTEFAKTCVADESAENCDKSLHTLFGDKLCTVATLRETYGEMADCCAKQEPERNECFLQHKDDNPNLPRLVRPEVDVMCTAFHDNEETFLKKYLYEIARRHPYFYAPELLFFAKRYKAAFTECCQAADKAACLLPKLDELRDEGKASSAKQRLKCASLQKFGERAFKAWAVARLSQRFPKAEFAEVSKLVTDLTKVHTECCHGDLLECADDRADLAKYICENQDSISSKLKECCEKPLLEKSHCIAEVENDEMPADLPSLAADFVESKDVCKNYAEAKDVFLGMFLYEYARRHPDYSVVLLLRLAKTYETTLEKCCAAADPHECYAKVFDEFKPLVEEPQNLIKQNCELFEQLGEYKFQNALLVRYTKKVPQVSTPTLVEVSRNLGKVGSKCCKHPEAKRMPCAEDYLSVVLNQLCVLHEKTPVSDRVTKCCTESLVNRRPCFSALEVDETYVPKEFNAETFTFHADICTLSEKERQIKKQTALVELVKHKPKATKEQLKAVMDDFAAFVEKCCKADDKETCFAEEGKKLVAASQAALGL

With O=C1Nc2ccc(Cl)cc2C(c2ccccc2)=NC1O (stereo not drawn) [Oxazepam] as the compound, how does the “HSA% (HPLC), experimental data” value [1] read?
The value was 79.9% and 89.5%.

And the “HSA% (HPLC), experimental data” value ([1]; listed as oxazepam)?
The value was 79.9% and 89.5%.

And the “HSA% (HPLC), literature data” value [2]?
Its value is 94.2%.

For Cc1cc(NS(=O)(=O)c2ccc(N)cc2)no1 [Sulfamethoxazole], which “HSA% (HPLC), experimental data” value [1] is on record?
Its value is 86.2%.

Which “HSA% (HPLC), literature data” value [2] does the source give for CC1=C(C(=O)O)N2C(=O)[C@@H](NC(=O)[C@H](N)c3ccccc3)[C@H]2SC1 [Cephalexin] here?
The value was 14%.

With CC(C)NCC(O)COc1ccc(CC(N)=O)cc1 (stereo not drawn) [Atenolol] as the compound, how does the “HSA% (HPLC), experimental data” value [1] read?
Its value is 14.3%.

Which results are given for NS(=O)(=O)c1cc(C(=O)O)c(NCc2ccco2)cc1Cl [Furosemide]?
HSA% (HPLC), experimental data [1]: 99.4%; HSA% (HPLC), literature data [2]: 63.8%

What does the source list for COc1ccc2cc([C@H](C)C(=O)O)ccc2c1 [Naproxen]?
HSA% (HPLC), experimental data [1]: 99.1%; HSA% (HPLC), literature data [2]: 99%

With CN(C)CCOC(c1ccccc1)c1ccccc1 [Diphenhydramine] as the compound, how does the “HSA% (HPLC), experimental data” value [1] read?
Its value is 55%.

What about the “HSA% (HPLC), literature data” value [2] of the same compound?
The value was 55.4%.
